Data published in PubChem BioAssay AID652104 (National Center for Advancing Translational Sciences (NCATS), 2013).
“And” between values parts separate entries of the source, which are not always exact repeats. Equal entries are not always repeated. Out of some 410,000 compounds screened, about 7,200 (1.8%) were called active. Inconclusive results, whose numbers are uncertain, are shown with a selection of clear calls. Calls follow the shape of the dose curve; as a rule, active = well fitted activation curve with a large enough effect; inconclusive = small, poorly fitted or top-dose-only effect, or another doubt; inactive = no such curve, though single readings can be large or run the other way. Potencies beside an inconclusive call are fits to weak or partial responses and may not hold up.

Test: qHTS of TDP-43 Inhibitors; also: nearly all actives have a fitted effect of over 50% in size; as to growth rescue (activation): % of control where 0% means no effect
Conditions: TDP-43 expressing yeast growth rescue, BacTiter-Glo, 24 h; growth rescue (activation): at 46.1 µM (top of the series) unless noted
Method in brief: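 Growth rescue of TDP-43-toxic yeast measured as ATP luminescence (BacTiter-Glo). Cells grown to mid-log in raffinose, induced in galactose at OD600=0.02, exposed to compound 24 hr at 30 deg C.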
Potency is read from the fitted curve at half-maximal effect; tags tell the direction and shape of the fitted curve.

Potency, active:
S=C(NCc1ccco1)N/N=C/c1ccc(Cl)cc1 22.4 µM
Cc1cc(Cl)ccc1OC(C)C(=O)N1CCCN(C(=O)C(C)Oc2ccc(Cl)cc2C)CC1 (stereo not drawn) 31.6 µM
COc1cc(C(O)c2nc(-c3cccc(C(C)C)c3)cs2)ccc1F (stereo not drawn) 22.4 µM
Fc1ccccc1-n1cc(-c2ccccc2)[nH]c1=S 12.6 µM
Nc1ccc2c(c1)C(O)c1ccc(Cl)cc1-2 (stereo not drawn) 20 µM
O=C(CSc1ncccn1)NCc1ccc(F)cc1 15.8 µM
COC(=O)c1ccc(NCc2c(O)ccc(O)c2Br)cc1Cl 20 µM
O=C(CCc1c[nH]c2ccccc12)OCc1ccc(Br)cc1 12.6 µM
COc1ccc(NC(=O)NCCCN2CCCC2=O)c(OC)c1 0.001 µM
COc1ccccc1N1CCN(C(=O)c2cc3c(-c4ccc(Cl)cc4)nn(C)c3s2)CC1 35.5 µM
COC(=O)CS(=O)(=O)c1nc2ccccc2nc1N1CCCCC1 20 µM
CC(=O)O[C@H]1CC[C@@]2(C)C(CCC3C2CC[C@]2(C)OC(=O)CCC32)C1 (stereo partly drawn) 35.5 µM

Potency, inconclusive:
O=C(CN1CCOc2ccccc21)N1CCC(Cc2ccccc2)CC1 11.2 µM [activator, partial curve]
Cc1cccc(N2CCN(C(=O)c3c(Cl)cnn3C)CC2)c1C 5.62 µM [activator, partial curve]
CCOC(=O)c1cc2c(=O)n3ccccc3nc2n(CC(C)C)c1=NC(=O)c1cc2ccccc2o1 0.355 µM [activator, full curve, poor fit]
CCOC(=O)C1CCN(C(=O)CCNC(=O)Cn2ccc3ccccc3c2=O)CC1 1.41 µM [activator, partial curve]
O=C(NC(=S)Nc1ccc(Br)cc1)C1CCC1 5.01 µM [activator, partial curve]
CCc1c(C2(O)CCCCC2)[nH]c2ccc(C(=O)OC)cc12 15.8 µM [activator, partial curve]
Cc1nc2scc(C)n2c(=O)c1S(=O)(=O)Nc1ccc(N2CCOCC2)cc1 891 nM [activator, full curve, poor fit] and 12.6 µM [activator, partial curve]
CNC(=O)C[C@@H]1C(=O)N(c2ccc(Br)cc2)CC1(C)C 7.94 µM [activator, partial curve, poor fit]
COc1ccc(C2CC(c3ccc(Br)cc3)=NN2C(=O)c2cccnc2)cc1 (stereo not drawn) 35.5 µM [activator, single point]
c1ccc(C2Nc3ccccc3Oc3ccccc32)cc1 (stereo not drawn) 12.6 µM [activator, partial curve]
CCOC(=O)C1(C)NC(c2ccc(N(C)C)cc2)C2C(=O)N(CC)C(=O)C21 (stereo not drawn) 39.8 µM [activator, partial curve, poor fit]
COc1ccc(-c2csc(N3N=C(C)C(C)C3=O)n2)cc1 (stereo not drawn) 35.5 µM [activator, partial curve]
COc1ccc2cc(/C=C3\SC(=S)NC3=O)c(N3CCOCC3)nc2c1 28.2 µM [activator, single point]
O=C(OCC(=O)N1CCN(C(=O)c2ccco2)CC1)c1cc(-c2cccc(Br)c2)nc2ccccc12 25.1 µM [activator, single point]
Cc1ccc(S(=O)(=O)Nc2nc3ccccc3nc2NCc2ccco2)cc1 31.6 µM [activator, single point]
CCNC(=O)N1c2ccc(OCC)cc2C(C)=CC1(C)C 11.2 µM [activator, partial curve]
Cc1cc(C)n2nc(SCC(=O)Nc3cccc(C(F)(F)F)c3)nc2n1 22.4 µM [activator, single point]
O=C(COc1ccc(Br)cc1Cl)N1CCN(c2ncccn2)CC1 20 µM [activator, partial curve, poor fit]
CCOC(=O)c1csc(-c2ccc(COC(=O)c3ccccc3)o2)n1 11.2 µM [activator, partial curve]
COc1cccc(OCc2cc(C(=O)N3CCN(C)C(c4ccccc4)C3)no2)c1 (stereo not drawn) 35.5 µM [activator, single point]
O=C(O)/C=C/C(=O)NNC(=O)c1ccc(Cl)cc1Cl 6.31 µM [activator, partial curve]
Cc1nn(CCOc2ccc(Br)cc2)c(C)c1[N+](=O)[O-] 10 µM [activator, partial curve]
COc1cc(CNn2cn[nH]c2=S)cc(Cl)c1OCc1ccc(F)cc1 15.8 µM [activator, single point]
O=C(Nc1cccc(F)c1)Nc1cccc(Cl)c1 3.55 µM [activator, single point]
Cc1ccc(S(=O)(=O)n2ccc3cccnc32)cc1 22.4 µM [activator, single point]
O=C1CC(Nc2ccc3ccccc3c2)C(=O)N1Cc1ccccc1 (stereo not drawn) 2.51 µM [activator, full curve]
CCOC(=O)C1=NNC(C(=O)c2ccc(OC)cc2)C1c1ccccc1 (stereo not drawn) 11.2 µM [activator, partial curve]
O=C(CSc1ncccn1)NCc1ccc(Cl)cc1 20 µM [activator, single point]
CCOC(=O)N1CCN(C(=O)c2ccc(Cl)c(NC(=O)c3cccs3)c2)CC1 3.16 µM [activator, partial curve]
c1ccc(N2CCN(c3cnc4ccccc4n3)CC2)cc1 14.1 µM [activator, single point]
CC1=Nc2cc(C(=O)NC3CCCC3)ccc2Sc2ccc(C)cc21 35.5 µM [activator, single point]
Cc1cc(Br)cn2c(Cc3ccsc3)c(-c3cccc(Br)c3)nc12 3.55 µM [activator, partial curve]
CCc1nnc(SCC(=O)N2CCCc3ccccc32)nc1CC 31.6 µM [activator, single point]
CSc1ncccc1C(=O)OCC(=O)NCCc1ccccc1 15.8 µM [activator, partial curve]
Cc1ccc(NC(=O)C2(c3cccs3)CCOCC2)cc1C 35.5 µM [activator, partial curve, poor fit]
COCCCNc1ncnc2onc(-c3ccc(F)cc3)c12 25.1 µM [activator, partial curve]
S=C(NCc1cccc(Cl)c1)NC1CCCCC1 35.5 µM [activator, single point]
C=CCSc1nc(-c2ccc(OC)cc2)c(C#N)c(=O)n1CC=C 12.6 µM [activator, partial curve]

Growth rescue (activation), inconclusive:
CCC(Oc1ccc(F)cc1)C(=O)Nc1nc(-c2ccc(F)cc2)ns1 (stereo not drawn) -89.4% [activator]
Cc1n[nH]c(C)c1S(=O)(=O)N(CC(=O)NC(C)c1ccccc1)c1ccc(C(C)C)cc1 (stereo not drawn) 13.1% [activator]

Growth rescue (activation), inactive:
COc1nc(=O)n(C2C=CC(=O)O2)cc1F (stereo not drawn) 0%
CCOCCn1ccc2c(OCC(=O)Nc3ccc(OC(F)(F)F)cc3)cccc2c1=O 8.46%
COc1cccc2cc(C(=O)NCCc3c(C)[nH]c4ccc(Br)cc34)c(=O)oc12 5%
Cc1ccc(-n2ncc(C(=O)Nc3ccc4c(c3)OCO4)c2C2CCN(C(=O)OC(C)(C)C)CC2)cc1 1.97%
CCc1ccc(N(CC)C(=O)Cn2c(=O)oc3ccccc32)cc1 22.3%
O=S(=O)(c1ccc(Br)cc1)c1nc(-c2cccs2)oc1SCc1ccccc1F 8.48%
O=C1NC(Cc2ccc(O)cc2)c2nc3ccc(Cl)cc3c(=O)n2-c2cc3ccccc3cc21 (stereo not drawn) 24.6%
COCCCNC(=O)c1cc(-c2cccnc2)nc2ccc(S(=O)(=O)N3CCC(C)CC3)cc12 0.556%
CC(=O)Nn1c(-c2ccccc2)cc2ccccc21 -3.52%
Cc1ccc(C2(c3ccccc3)NC(=O)N(CC(=O)NC3(C#N)CCCC3)C2=O)cc1C (stereo not drawn) -10.1%
O=C(Oc1cccc2ccccc12)c1ccco1 -9.34%
Cc1ccc(CNC(=O)Cn2cc(S(=O)(=O)Cc3ccccc3F)c3ccccc32)cc1 10.5%
CN(C)S(=O)(=O)c1cccc(NC(=O)CSc2nc3ccccc3n2-c2ccccc2)c1 0%
CCCC/C(O)=C/c1nc2ccccc2[nH]c1=O 0%
COc1cc(NC(=O)CSC2=Nc3ccccc3N=C(c3ccc(F)cc3)C2)cc(OC)c1 0%
CC(C)c1cnc2c(c1SCC(=O)NCc1ccccc1)c(=O)n(C)c(=O)n2C 21.1%
CCOC(=O)c1ccccc1NC(=O)Nc1cc2c(cc1N1CCCCC1)n(C)c(=O)n2C 13.4%
COC(=O)c1cc(C)nc2c1c(=O)nc(SCc1cccc(C)c1)n2C1CC1 12.4%
CC1=CCC(C(=O)O)(C(=O)N/N=C/c2cccs2)C(c2ccc(F)cc2)C1 (stereo not drawn) 9.45%
C#Cc1ccc(NC(=O)C2(C)CCN2C(=O)CC(c2ccccc2)c2ccccc2)cc1 (stereo not drawn) 9.75%
Cc1ccccc1Nc1nc(N)nc(COC(=O)CCC(=O)c2ccc(F)cc2)n1 4.71%
